# According to PubChem BioAssay AID686970 (National Center for Advancing Translational Sciences (NCATS), 2013):
# Hit rate of the full screen: of about 360,000 compounds, about 6,000 (1.7%) were called active. The shares of active, inactive and inconclusive entries below differ from those in the screen. The call rests on the fitted dose curve; in most records, active means well fitted cell-killing curve with a large enough effect; inconclusive means small, poorly fitted or top-dose-only effect, or effect the other way; inactive means flat fitted curve, though single readings scatter. Potencies of inconclusive entries are left out as doubtful fits.
# Assay: qHTS for induction of synthetic lethality in tumor cells producing 2HG: qHTS for the HT-1080-NT fibrosarcoma cell line;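 further: NT is the 2HG producing partner of a matched IDH1 knockdown line; nearly all actives have a fitted effect of over 55% in size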;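 on activity, negative = less viability: 0% = DMSO-treated cells and -100% = media-only wells without cells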
# Conditions: HT-1080-NT fibrosarcoma viability, CellTiter-Glo ATP luminescence, 48 h; activity, negative = less viability: at 46.1 µM (top of the series) unless noted
# How it was run: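 Toxicity toward the 2HG-producing NT line was scored as %Activity, normalised to DMSO and no-cell wells, from CellTiter-Glo luminescence after 48 hours' treatment.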
# Potency means the concentration at half of the fitted maximal effect; tags describe the fitted curve by direction and shape.
SMILES,Potency,"activity, negative = less viability"
O=C(NNC1=C(C(=O)C(F)(F)F)CCC1)c1ccc(Br)cc1,"inconclusive [cytotoxic, single point]",
O=C(CN1CCCc2ccccc21)N/N=C/c1ccc(O)cc1O,"inconclusive [cytotoxic, partial curve]",
CC(=O)N1CCN(c2nnc(-c3ccc(C)cc3)c3ccccc23)CC1,,inactive: -0.262%
Cc1ccc(CNC(=O)C2(C)CCN2C(=O)Cc2ccc(C(C)(C)C)cc2)cc1 (centres undefined),"inconclusive [cytotoxic, single point]",
CC1=C(C(=O)OCc2ccc3c(c2)OCO3)C(c2ccc(Cl)cc2)NC(=O)N1 (centres undefined),active: 2.51 µM,
O=C(c1ccccc1)c1ccc(OCCOCCN2CCN(Cc3ccccc3)CC2)cc1,active: 18.4 µM,
CCSc1nc2ccccc2n1C(=O)c1ccc(S(=O)(=O)N2CCCCC2)cc1,"inconclusive [cytotoxic, single point]",
Cc1cc2oc3cc(NCCC4CCCN4C)ccc3c(=O)c2cc1C (centres undefined),"inconclusive [cytotoxic, partial curve, poor fit]",
O=[N+]([O-])c1cccc2nc3ccccc3c(NCCCn3ccnc3[N+](=O)[O-])c12,"inconclusive [cytotoxic, full curve]",
COc1ccc(NC(=O)c2ccco2)cn1,"inconclusive [rising, single point]",
COc1ccc(C)cc1Nc1n[n+](-c2ccccc2)c(-c2c(OC)ccc3ccccc23)s1,"inconclusive [cytotoxic, single point]",
C=CCOc1cccc(/C=C/c2nc3ccccc3c(=O)[nH]2)c1,"inconclusive [cytotoxic, single point]",
CC(C)C(N)c1csc(Nc2ccc(C(=O)NCCCO)cn2)n1 (centres undefined),"inconclusive [rising, single point]",
Oc1cc(O)c2c(c1)O[C@H](c1ccc(O)c(O)c1)[C@@H](O)C2,,inactive: 18.9%
Cc1ccccc1OCC(O)Cn1c(SC(C)C)nc2c1c(=O)[nH]c(=O)n2C (centres undefined),,inactive: -0.868%
COc1ccc(C2CC(c3ccccc3C(F)(F)F)=NN2c2ccc(S(N)(=O)=O)cc2)cc1 (centres undefined),"inconclusive [cytotoxic, single point]",
COC(=O)c1ccc(C)c(NS(=O)(=O)c2ccc(OC)cc2)c1,"inconclusive [cytotoxic, full curve]",
Cc1nc(C)c(-c2ccc(SCC(=O)Nc3cccc(F)c3)nn2)s1,"inconclusive [cytotoxic, single point]",
CC1=C(C(=O)N(C(C)C)C(C)C)CC(CC(=O)NC(c2ccccc2)c2ccccc2)C(=O)N1CCC1=CCCCC1 (centres undefined),"inconclusive [cytotoxic, single point]",
CC(C)(C)c1cc(NCc2ccccn2)n2ncc(-c3ccccc3)c2n1,"inconclusive [cytotoxic, single point]",
CCCCC[C@@H](C)N1C[C@H](COCc2ccccc2)Oc2cc(N3CCC[C@@H]3CO)ccc2S1(=O)=O,"inconclusive [cytotoxic, single point]",
O=P(CCCCCCCCCP(=O)(c1ccccc1)c1ccccc1)(c1ccccc1)c1ccccc1,active: 18.4 µM,
Cc1ccc(CN2CCC[C@]3(N[C@H](c4ccc(C)cc4)[C@@H]4C(=O)N(Cc5ccccc5)C(=O)[C@@H]43)C2=O)cc1,,inactive: -1.31%

SMILES,Potency,"activity, negative = less viability"
COc1ccc(N2CCN(C(=O)COc3ccc4c(C)cc(=O)oc4c3C)CC2)cc1,,inactive: -0.024%
COc1ccccc1NS(=O)(=O)c1ccc2oc(=S)[nH]c2c1,"inconclusive [rising, partial curve, poor fit]",
O=S(=O)(c1cccs1)N1CN(C2CCCCC2)c2nc3ccccc3nc21,,inactive: -22.7%
CC(C)C(NC(=O)CNC(=O)OC(C)(C)C)C(=O)NCc1ccc(Cl)cc1 (centres undefined),,inactive: -9.03%
CCOC(=O)COc1ccccc1/C=C1\NC(=O)NC1=O,,inactive: 4.2%
N#CC1=C(N)Oc2cc(N)ccc2C1c1ccc(Cl)cc1 (centres undefined),"inconclusive [cytotoxic, single point]",
CC(C)NS(=O)(=O)c1ccc2[nH]c3nc(SCC(=O)Nc4ccc(F)c(F)c4)nnc3c2c1,"inconclusive [cytotoxic, single point]",
COC(=O)C1(C)CCC(C(=O)Nc2ccccc2)C1(C)C (centres undefined),,inactive: -1.27%
C[C@H](CO)N1C[C@H](C)[C@@H](CN(C)S(C)(=O)=O)Oc2ccc(NC(=O)Nc3ccc4c(c3)OCO4)cc2C1=O,,inactive: 26.1%
Cc1cc(C)nc(NCCO)n1,,inactive: 9.4%
O=C(Cc1ccc(Cl)c(Cl)c1)Nc1ccc(S(=O)(=O)Nc2ncccn2)cc1,,inactive: -18.8%
CCOc1ccccc1NC(=O)CN(c1ccc(C)cc1)S(=O)(=O)c1c(C)n[nH]c1C,"inconclusive [cytotoxic, single point]",
COc1ccc2nc(NC3=NC(c4ccccc4)CC(=O)N3)nc(C)c2c1 (centres undefined),"inconclusive [cytotoxic, single point]",
O=C(CN1CCCCCC1)Nc1ccc(Oc2ccccc2)cc1,"inconclusive [cytotoxic, single point]",
COc1ccc(-c2csc(NC(=O)CCS(=O)(=O)c3ccccc3)n2)c(OC)c1,"inconclusive [cytotoxic, single point]",
Cc1nc2ccc(S(=O)(=O)Nc3ccccc3C)cc2s1,"inconclusive [cytotoxic, single point]",
O=[N+]([O-])c1ccccc1S(=O)(=O)Nc1cccc(S(=O)(=O)N2CCCC2)c1,,inactive: -0.675%
Cc1[nH]ccc2c1[nH]c1cc(=O)ccc12,"inconclusive [cytotoxic, partial curve]",
CC(=O)C1=C(C)NC(SCC(=O)c2ccc(Cl)cc2)=C(C#N)C1c1ccco1 (centres undefined),"inconclusive [cytotoxic, single point]",
CC[C@@]1(C(=O)OC)N[C@H](CN(C)C(=O)COC)[C@@H]2C(=O)N(C)C(=O)[C@@H]21,,inactive: 6.54%
COc1ccc(OC)c(-c2oc3ccccc3c(=O)c2O)c1,"inconclusive [cytotoxic, single point]",
Oc1[nH]c2ccc(Br)cc2c1N=NC(=S)Nc1ccc(F)cc1,"inconclusive [cytotoxic, partial curve, poor fit]",
NC(=O)CSc1nnc(-c2cccs2)n1-c1ccccc1,,inactive: -2.15%

SMILES,Potency,"activity, negative = less viability"
Cc1ccccc1C(=O)NNC(=S)NC(=O)c1cccs1,"inconclusive [cytotoxic, partial curve]",
COc1cc(OC)c(NC(=O)C2CC(=O)N(c3ccc4c(c3)OCCO4)C2)cc1Cl (centres undefined),,inactive: 3.32%
COc1ccc(C2C3=C(CC(C)(C)CC3=O)Oc3ncn(CC(C)C)c(=N)c32)cc1 (centres undefined),,inactive: -4.58%
O=C(N/N=C/C(Cl)=C/c1ccccc1)c1ccccn1,,inactive: 7.65%
Cc1ccc(-c2cc(C(=O)N/N=C/C=C/c3ccccc3)n[nH]2)s1,"inconclusive [cytotoxic, single point]",
Cc1ccc(S(=O)(=O)N(C(=O)c2ccncc2)c2ccc(OC(=O)c3ccncc3)cc2)cc1,,inactive: -4.36%
Cc1cc(C)n(C(=O)c2ccc(NC(=O)C3COc4ccccc4O3)cc2)n1 (centres undefined),"inconclusive [rising, full curve, poor fit]",
Cc1ccccc1NC(=O)Nc1nc(C(N)Cc2ccccc2)cs1 (centres undefined),active: 23.1 µM,
CC1CCCCC1N1CN=C(Nc2nc3ccccc3s2)NC1 (centres undefined),,inactive: -5.45%
CCOc1ccc(C(C)=O)cc1COc1cccnc1[N+](=O)[O-],"inconclusive [cytotoxic, partial curve]",
O=[N+]([O-])c1cccc(N(CC2CO2)S(=O)(=O)c2ccccc2)c1 (centres undefined),,inconclusive: -34.2% [cytotoxic]
COc1cc2c(C#N)c(N3CCN(c4ccccc4OC)CC3)nc(N)c2c(N)n1,"inconclusive [cytotoxic, single point]",
N#CCCn1nc(-c2ccccc2)cc1-n1c(C(F)(F)F)nc2ccccc21,"inconclusive [cytotoxic, single point]",
Cc1ccc(C)c(N2CCN(C(=O)Cc3ccc(-n4c(=O)[nH]c5ccsc5c4=O)cc3)CC2)c1,,inactive: -7.74%
COc1ccc(NC(=O)C2(C)Cc3c(-c4ccc(N(C)C)cc4)ccnc3O2)cn1 (centres undefined),"inconclusive [cytotoxic, single point]",
CCC(CC)=N/N=C/c1c(O)n(CC)c2cc(C3=NNC(=O)CC3)ccc12,,inactive: -14.5%
Cn1nc(C(C)(C)C)cc1C(=O)N1CCCCC1c1cc(C(=O)Nc2cccc(C#N)c2)no1 (centres undefined),,inconclusive: 13.1%
CCOC(=O)c1c2n(c3ccc(OC(C)=O)cc13)CCC2,"inconclusive [rising, single point]",
O=C(CSc1nc2ccc([N+](=O)[O-])cc2[nH]1)c1ccc2ccccc2c1,"inconclusive [cytotoxic, single point]",
c1ccc(CN2CCN(CCOCCOc3ccc4c(c3)CCC4)CC2)cc1,active: 16.4 µM,
Cc1ccc(-n2nc3c(=O)n(CCCC(=O)N4CCC(C(N)=O)CC4)nc(C)c3c2C)cc1,,inactive: 1.9%
Oc1c(Cl)cc(Cl)cc1/C=C/c1ccc2cccc(O)c2n1,"inconclusive [cytotoxic, partial curve]",
Cc1ccc2c(c1)[C@H]1[C@H](CO2)[C@H](c2ccccc2)[C@]2(C)C(=O)N(Cc3ccc(F)cc3)CC(=O)N12,"inconclusive [cytotoxic, single point]",
